For 25 compounds, cytotoxicity call and growth inhibition call results are on record in the antibiotic and cytotoxicity screens of Wong et al. (2023).

Some of the results follow.

One experiment has as its system HSkMC. The experiment can be described thus: cytotoxicity call (relative viability < 0.9). Conditions: 10 µM.
For a further experiment, the system named is HepG2. The experiment can be described thus: cytotoxicity call (relative viability < 0.9). To be noted: 10 µM.
The subject of a further experiment is S. aureus RN4220. Put plainly: growth inhibition call (relative growth <= 0.2). Conditions: 50 µM.

With `C[C@@H]1CN([C@@H](C)CO)C(=O)Cc2cc(NC(=O)Nc3ccc(C(F)(F)F)cc3)ccc2O[C@@H]1CN(C)C(=O)Nc1ccc(F)cc1`, the cytotoxicity call in the experiment with HSkMC and in the experiment with HepG2 was “active” throughout. In addition, the growth inhibition call in the experiment with S. aureus RN4220 was “inactive”.
With `CN1C(=O)c2cc(NC(=O)C3CCC3)ccc2OC[C@H]2O[C@H](CC(=O)NCCc3ccncc3)CC[C@@H]21`, the cytotoxicity call in the experiment with HSkMC and in the experiment on HepG2 was “inactive” in each case. Further, in the experiment with S. aureus RN4220, the growth inhibition call is “inactive”.
`C[C@@H]1CN([C@H](C)CO)S(=O)(=O)c2ccc(C#Cc3ccccc3)cc2O[C@H]1CN(C)S(C)(=O)=O`: the cytotoxicity call in the experiment with HSkMC and with HepG2 was “inactive” throughout. Moreover, the growth inhibition call with S. aureus RN4220 is “inactive”.
As for `C[C@@H]1CN([C@@H](C)CO)C(=O)Cc2cc(NC(=O)CCC(F)(F)F)ccc2O[C@@H]1CN(C)C(=O)Nc1cccc2ccccc12`, the cytotoxicity call in the experiment with HSkMC and in the experiment on HepG2 was “inactive” in each case. For the same compound, the growth inhibition call in the experiment with S. aureus RN4220 was “inactive”.
With `C[C@H]1CN([C@@H](C)CO)C(=O)Cc2cc(NC(=O)Cc3cn(C)c4ccccc34)ccc2O[C@@H]1CN(C)Cc1ccc(Oc2ccccc2)cc1`, the cytotoxicity call with HSkMC and with HepG2 was “inactive” each time. Besides, the growth inhibition call with S. aureus RN4220 was “inactive”.
As to `Cc1noc(C)c1S(=O)(=O)N(C)C[C@H]1Oc2ccc(NS(=O)(=O)c3cccs3)cc2CC(=O)N([C@H](C)CO)C[C@H]1C`, the cytotoxicity call in the experiment with HSkMC and with HepG2 was “inactive” each time. Moreover, in the experiment with S. aureus RN4220, the growth inhibition call was “inactive”.
For `NCc1ccc(C(=O)N2CCCC2)cc1`, the cytotoxicity call with HSkMC and with HepG2 was “inactive” each time. For the same compound, in the experiment on S. aureus RN4220, the growth inhibition call was “inactive”.
On to `C[C@H](CO)N1C[C@H](C)[C@@H](CN(C)Cc2ccc(Oc3ccccc3)cc2)Oc2c(NC(=O)Nc3ccccc3)cccc2C1=O`, for which the cytotoxicity call with HSkMC was “active”. For the same compound, the cytotoxicity call in the experiment with HepG2 was “inactive”. In addition, in the experiment on S. aureus RN4220, the growth inhibition call is “inactive”.
In the case of `Cc1nc(=O)c2cccc(O)c2[nH]1`, the cytotoxicity call in the experiment with HSkMC and with HepG2 was “inactive” throughout. Also, the growth inhibition call with S. aureus RN4220 is “inactive”.
With `Cc1ccc(S(=O)(=O)Nc2ccc3c(c2)C(=O)N([C@H](C)CO)C[C@@H](C)[C@H](CN(C)C(=O)CCC(F)(F)F)OCCCC[C@@H](C)O3)cc1`, the cytotoxicity call in the experiment on HSkMC and in the experiment with HepG2 was “inactive” each time. Further, in the experiment with S. aureus RN4220, the growth inhibition call was “inactive”.
Turning to `C[C@@H]1CC=CC[C@@H](c2cccc(Cl)c2)NC(=O)[C@@H](Cc2ccccc2)N(C)C(=O)c2ccccc2O1`, the cytotoxicity call in the experiment with HSkMC and in the experiment on HepG2 was “inactive” in each case. Moreover, the growth inhibition call in the experiment with S. aureus RN4220 is “inactive”.
In the case of `C[C@@H]1CN([C@H](C)CO)C(=O)c2cc(NC(=O)Nc3cccc4ccccc34)ccc2O[C@@H](C)CCCCO[C@@H]1CN(C)S(=O)(=O)c1ccccc1`, the cytotoxicity call with HSkMC and with HepG2 was “inactive” in each case. In the experiment on S. aureus RN4220, the growth inhibition call is “inactive”.
For `Cc1noc(C)c1S(=O)(=O)Nc1ccc2c(c1)C(=O)N([C@@H](C)CO)C[C@H](C)[C@H](CN(C)S(=O)(=O)c1cccs1)O2`, the cytotoxicity call in the experiment with HSkMC and in the experiment with HepG2 was “inactive” each time. Besides, the growth inhibition call in the experiment on S. aureus RN4220 is “inactive”.
Regarding `C[C@@H]1CN([C@@H](C)CO)C(=O)c2cc(-c3cccc(C(=O)N(C)C)c3)cnc2O[C@H]1CN(C)S(=O)(=O)c1cccc(F)c1`, the cytotoxicity call with HSkMC and in the experiment with HepG2 was “inactive” throughout. Moreover, the growth inhibition call in the experiment on S. aureus RN4220 was “inactive”.
Regarding `C[C@@H]1CN([C@@H](C)CO)C(=O)c2cc(NC(=O)Cn3cnnn3)ccc2O[C@@H]1CN(C)CC1CCCCC1`, the cytotoxicity call in the experiment on HSkMC and in the experiment with HepG2 was “inactive” throughout. In addition, the growth inhibition call in the experiment with S. aureus RN4220 is “inactive”.
For `COC(=O)C[C@@H]1CC[C@H]2[C@@H](COC[C@@H](O)CN2S(=O)(=O)c2cn(C)cn2)O1`, the cytotoxicity call in the experiment with HSkMC and in the experiment with HepG2 was “inactive” throughout. Also, the growth inhibition call in the experiment on S. aureus RN4220 was “inactive”.
Turning to `CN1CCN(C(=O)C[C@H]2CC[C@@H]3[C@H](COC[C@H](O)CN3S(=O)(=O)c3cccc(F)c3)O2)CC1`, the cytotoxicity call with HSkMC and in the experiment with HepG2 was “inactive” throughout. For the same compound, the growth inhibition call in the experiment with S. aureus RN4220 was “inactive”.
`C[C@H]1CN([C@@H](C)CO)C(=O)Cc2cc(NC(=O)Cn3cnnn3)ccc2O[C@H]1CN(C)C(=O)Nc1ccc(F)cc1`: the cytotoxicity call with HSkMC and with HepG2 was “inactive” each time. Besides, the growth inhibition call in the experiment on S. aureus RN4220 was “inactive”.
As for `C[C@H](CO)N1C[C@H](C)[C@H](CN(C)Cc2ccc3c(c2)OCO3)Oc2c(NC(=O)c3cnccn3)cccc2C1=O`, the cytotoxicity call in the experiment on HSkMC (human skeletal muscle cells) and in the experiment on HepG2 was “inactive” throughout. The growth inhibition call with S. aureus RN4220 is “inactive”.
Consider `C[C@@H]1CN([C@H](C)CO)C(=O)c2cc(NS(=O)(=O)c3ccc(Cl)cc3)ccc2O[C@@H]1CN(C)Cc1ccc(-c2ccccc2)cc1`, for which the cytotoxicity call with HSkMC and with HepG2 was “active” each time. For the same compound, the growth inhibition call in the experiment with S. aureus RN4220 was “inactive”.
For `C[C@@H]1CN([C@H](C)CO)S(=O)(=O)c2ccc(C#Cc3ccc(F)cc3)cc2O[C@H]1CN(C)C(=O)c1ccccn1`, the cytotoxicity call with HSkMC and in the experiment on HepG2 was “inactive” each time. For the same compound, in the experiment on S. aureus RN4220, the growth inhibition call is “inactive”.
Consider `CC(=O)OC1CC2C(C)(C)C=CCC2(C)C2CCC3(C)C(c4ccoc4)OC(=O)C4OC43C12C` (stereo not given), for which the cytotoxicity call in the experiment with HSkMC and in the experiment with HepG2 was “inactive” each time. Also, in the experiment with S. aureus RN4220, the growth inhibition call is “inactive”.
As to `C[C@@H]1CN([C@@H](C)CO)S(=O)(=O)c2ccc(Br)cc2O[C@H]1CN(C)C(=O)c1ccc2c(c1)OCO2`, the cytotoxicity call with HSkMC and in the experiment with HepG2 was “inactive” throughout. Besides, in the experiment on S. aureus RN4220, the growth inhibition call was “inactive”.
As for `COc1ccc(S(=O)(=O)N(C)C[C@@H]2Oc3c(NS(=O)(=O)c4ccc(F)cc4)cccc3C(=O)N([C@H](C)CO)C[C@H]2C)cc1`, the cytotoxicity call with HSkMC and in the experiment with HepG2 was “inactive” throughout. Besides, the growth inhibition call in the experiment on S. aureus RN4220 is “inactive”.
Regarding `C[C@H](CO)N1C[C@H](C)[C@@H](CN(C)C(=O)c2cc(-c3ccccc3)on2)OCc2cn(nn2)CCCC1=O`, the cytotoxicity call with HSkMC and with HepG2 was “inactive” throughout. In addition, the growth inhibition call in the experiment on S. aureus RN4220 was “inactive”.
